Experimental data from PMC11995724, “Antibiotic target discovery by integrated phenotypic and activity-based profiling of electrophilic fragments” (Cell chemical biology, 2025).
Out of some 3,200 compounds screened, about 75 (2%) showed an effect of 50% or more. This is one part of the list.

System: T1, S. aureus MSSA476
T1 construct: MSSA476
Set-up: species or system S. aureus MSSA476 (TSB) or V. cholerae SAD30 (LB); 384-well bacterial growth screen at 25 uM, OD600 relative to DMSO control
Conditions: relative growth, OD600, TSB; 25 µM; inhibitor

SMILES	% of control remaining
C=CC(=O)NCc1cn(C2CCC2)nn1 [3-D09, N-[(1-cyclobutyl-1H-1,2,3-triazol-4-yl)methyl]prop-2-enamide]	106.226%
C=CC(=O)Nc1ccc2c(c1)S(=O)(=O)CC2 [3-O15, N-(1,1-dioxo-2,3-dihydro-1lambda6-benzothiophen-6-yl)prop-2-enamide]	91.5977%
C=CC(=O)NCC(c1c(F)cccc1F)N1CC(C)OC(C)C1 (stereo not drawn) [1-I13, N-[2-(2,6-difluorophenyl)-2-(2,6-dimethylmorpholin-4-yl)ethyl]prop-2-enamide]	98.1099%
O=C(CCl)N1N=C(c2cccs2)CC1c1cccc(O)c1 (stereo not drawn) [6-L04, 2-chloro-1-[5-(3-hydroxyphenyl)-3-(thiophen-2-yl)-4,5-dihydro-1H-pyrazol-1-yl]ethan-1-one]	3.7561%
CC(Cl)C(=O)N(C)CC(=O)Nc1ccccc1C(F)(F)F (stereo not drawn) [4-N05, 2-chloro-N-methyl-N-({[2-(trifluoromethyl)phenyl]carbamoyl}methyl)propanamide]	100.619%
Cn1cc(CN(C(=O)CCl)c2ccc(F)cc2)cn1 [6-D08, 2-chloro-N-(4-fluorophenyl)-N-[(1-methyl-1H-pyrazol-4-yl)methyl]acetamide]	94.2439%
O=C(CCl)N1CCOc2c1cccc2C(F)(F)F [5-G08, 2-chloro-1-[8-(trifluoromethyl)-3,4-dihydro-2H-1,4-benzoxazin-4-yl]ethan-1-one]	0.3643%
CCN(CC)S(=O)(=O)c1ccc(NC(=O)CCl)cc1 [4-K07, 2-chloro-N-[4-(diethylsulfamoyl)phenyl]acetamide]	110.91%
C=CC(=O)N1CCC(C(=O)NCc2ccoc2C)CC1 [1-E14, N-[(2-methylfuran-3-yl)methyl]-1-(prop-2-enoyl)piperidine-4-carboxamide]	98.4615%
O=C(CCl)N1N=C(c2ccsc2)CC1c1cccc(F)c1 (stereo not drawn) [4-C22, 2-chloro-1-[5-(3-fluorophenyl)-3-(thiophen-3-yl)-4,5-dihydro-1H-pyrazol-1-yl]ethan-1-one]	168.08%
O=C(CCl)NCc1cc(O)ccc1Cl [7-J21, 2-chloro-N-[(2-chloro-5-hydroxyphenyl)methyl]acetamide]	95.1334%
Cc1ccc(C)c(NC(=O)CN(C)C(=O)CCl)c1 [6-N04, 2-chloro-N-{[(2,5-dimethylphenyl)carbamoyl]methyl}-N-methylacetamide]	106.537%
COc1ccc(CNC(=O)C(C)Cl)cc1 (stereo not drawn) [5-J18, 2-chloro-N-[(4-methoxyphenyl)methyl]propanamide]	118.761%
C=CC(=O)NCCn1cc(Cl)c(C(F)(F)F)n1 [2-F03, N-{2-[4-chloro-3-(trifluoromethyl)-1H-pyrazol-1-yl]ethyl}prop-2-enamide]	110.357%
C=CCNC(=O)C(C#N)=CC=Cc1ccccc1 [9-J08, 2-cyano-5-phenyl-N-(prop-2-en-1-yl)penta-2,4-dienamide]	82.6966%
CCN(CC)S(=O)(=O)c1cccc(NC(=O)CCl)c1 [4-M07, 2-chloro-N-[3-(diethylsulfamoyl)phenyl]acetamide]	110.529%
C=CC(=O)N1CCC(n2cc(C(N)=O)nn2)C1 (stereo not drawn) [1-C18, 1-[1-(prop-2-enoyl)pyrrolidin-3-yl]-1H-1,2,3-triazole-4-carboxamide]	111.824%
COc1ccc(N(C)C(=O)C(C)Cl)cc1Cl (stereo not drawn) [7-C14, 2-chloro-N-(3-chloro-4-methoxyphenyl)-N-methylpropanamide]	104.553%
CC(Cl)C(=O)Nc1ccccc1C(N)=O (stereo not drawn) [5-G05, 2-(2-chloropropanamido)benzamide]	93.9891%
C=CC(=O)NCCC(=O)N1CCCC1c1cc(C)on1 (stereo not drawn) [2-C12, N-{3-[2-(5-methyl-1,2-oxazol-3-yl)pyrrolidin-1-yl]-3-oxopropyl}prop-2-enamide]	150.044%
C=CC(=O)N1CCC(n2ccc(C)n2)CC1 [2-A21, 1-[4-(3-methyl-1H-pyrazol-1-yl)piperidin-1-yl]prop-2-en-1-one]	154.917%
C=CC(=O)NCc1conc1C1CCC1 [1-N06, N-[(3-cyclobutyl-1,2-oxazol-4-yl)methyl]prop-2-enamide]	124.132%
Cc1ccc(-n2c(C)cc(C(=O)CCl)c2C)cc1C [10-B14, 2-chloro-1-[1-(3,4-dimethylphenyl)-2,5-dimethyl-1H-pyrrol-3-yl]ethan-1-one]	1.25%
C=CC(=O)NCc1ncccc1S(C)(=O)=O [2-D21, N-[(3-methanesulfonylpyridin-2-yl)methyl]prop-2-enamide]	107.92%
O=C(CCl)Nc1cc(C(=O)O)cc(C(=O)O)c1 [4-B04, 5-(2-chloroacetamido)benzene-1,3-dicarboxylic acid]	99.8571%
CC(Cl)C(=O)N(C)Cc1cn(C)nc1C(F)(F)F (stereo not drawn) [7-M04, 2-chloro-N-methyl-N-{[1-methyl-3-(trifluoromethyl)-1H-pyrazol-4-yl]methyl}propanamide]	97.0173%
CC(Cl)C(=O)NCc1ccco1 (stereo not drawn) [5-B09, 2-chloro-N-[(furan-2-yl)methyl]propanamide]	118.761%
Cc1cccc2nc(C3CCN(C(=O)C(C)Cl)CC3)oc12 (stereo not drawn) [7-M12, 2-chloro-1-[4-(7-methyl-1,3-benzoxazol-2-yl)piperidin-1-yl]propan-1-one]	86.9702%
CC(c1cccs1)N(C)C(=O)CCl (stereo not drawn) [6-M21, 2-chloro-N-methyl-N-[1-(thiophen-2-yl)ethyl]acetamide]	85.7073%
CC(Oc1cccc(F)c1F)C(=O)N1CCN(C(=O)CCl)CC1 (stereo not drawn) [5-H03, 1-[4-(2-chloroacetyl)piperazin-1-yl]-2-(2,3-difluorophenoxy)propan-1-one]	90.7104%
